Test results as given in publication PMC4336329 (PLoS ONE, 2015).
Hit rate of the full screen: of about 310,000 compounds, about 2,200 (0.71%) showed an effect of 50% or more. Effects have a minus sign here. The list shows a part of the results.

These compounds were tested against human ether-à-go-go-related gene (hERG) potassium channel (human, UniProt Q12809) (assay: primary screen, population patch clamp on CHO cells stably expressing hERG).
Chain of human ether-à-go-go-related gene (hERG) potassium channel (Q12809 whole entry, looked up): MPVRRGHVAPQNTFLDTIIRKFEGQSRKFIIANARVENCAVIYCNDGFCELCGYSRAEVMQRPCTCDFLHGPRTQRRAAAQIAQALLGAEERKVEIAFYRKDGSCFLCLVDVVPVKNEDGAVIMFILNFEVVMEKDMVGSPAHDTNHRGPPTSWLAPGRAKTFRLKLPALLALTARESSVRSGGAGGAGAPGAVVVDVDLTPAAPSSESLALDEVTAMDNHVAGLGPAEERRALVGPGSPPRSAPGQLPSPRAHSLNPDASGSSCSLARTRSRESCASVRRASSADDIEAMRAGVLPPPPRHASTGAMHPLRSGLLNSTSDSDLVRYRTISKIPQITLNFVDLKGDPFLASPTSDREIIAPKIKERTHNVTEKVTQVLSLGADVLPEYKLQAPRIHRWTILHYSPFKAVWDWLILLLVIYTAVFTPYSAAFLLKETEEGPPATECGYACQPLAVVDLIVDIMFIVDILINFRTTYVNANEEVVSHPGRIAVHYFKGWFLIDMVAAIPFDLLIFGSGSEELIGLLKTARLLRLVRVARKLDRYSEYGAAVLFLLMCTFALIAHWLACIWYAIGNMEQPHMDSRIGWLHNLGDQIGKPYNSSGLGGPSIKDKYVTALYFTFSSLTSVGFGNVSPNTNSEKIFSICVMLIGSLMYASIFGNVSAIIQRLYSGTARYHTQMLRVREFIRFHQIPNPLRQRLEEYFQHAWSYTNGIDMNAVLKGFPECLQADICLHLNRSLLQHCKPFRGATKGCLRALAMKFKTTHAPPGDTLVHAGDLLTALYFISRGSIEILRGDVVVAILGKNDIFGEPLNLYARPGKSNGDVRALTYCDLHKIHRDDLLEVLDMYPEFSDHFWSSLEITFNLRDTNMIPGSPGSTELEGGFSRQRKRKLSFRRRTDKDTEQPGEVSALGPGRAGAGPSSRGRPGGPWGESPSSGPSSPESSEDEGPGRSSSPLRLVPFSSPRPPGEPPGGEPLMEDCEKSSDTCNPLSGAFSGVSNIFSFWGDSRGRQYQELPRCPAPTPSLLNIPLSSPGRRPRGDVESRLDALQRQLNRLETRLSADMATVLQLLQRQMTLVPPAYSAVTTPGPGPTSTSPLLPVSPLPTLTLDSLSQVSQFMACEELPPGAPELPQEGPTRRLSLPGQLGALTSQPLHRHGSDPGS

| Structure (SMILES) | hERG current change (%, negative = inhibition) at 1uM [%] |
| --- | --- |
| O=C(Nc1ccc(F)cc1)N1CCN(c2ccc3nnc(-c4ccc(F)cc4)n3n2)CC1 | -24.4 |
| O=[N+]([O-])c1ccc(N2CCN(c3ccc(O)cc3)CC2)c(Cl)c1 | 6.31 |
| O=C(CSc1nnc(C2CC2)n1-c1ccccc1)N1CCNC1=O | 14.6 |
| O=S(=O)(c1ccc(Cl)s1)N1CCN(C/C=C/c2ccccc2)CC1 | -9.09 |
| COc1ccc(NC(=O)CN2C(=O)COc3ccc(C)cc32)cc1 | 12.8 |
| O=C(Nc1cccc(Br)c1)c1ccn[nH]1 | 5.21 |
| COc1ccc(C(=O)Nc2cc3c4c(c2)CC(=O)N4CCC3)cc1 | 0.325 |
| CCOC(=O)CCCNC(=O)COC(=O)c1ccc(O)cc1 | 7.59 |
| CC(C)(C)CC(=O)Nc1nnc(SCC(=O)NCc2cccs2)s1 | 6.94 |
| CCCC(=O)Nc1ccc(S(=O)(=O)N2CCCC2)cc1 | 1.43 |
| CC(C)c1ccc(CN2CCSCC2)cc1 | 12.3 |
| COc1ccc(N2C(=O)CC(Sc3nnc(-c4ccccc4)o3)C2=O)cc1 (stereo not drawn) | -17.1 |
| OCCNc1nc(N2CCOCC2)nc(N2CCOCC2)n1 | 3.64 |
| Cc1c(C(=O)O)oc2ccc(S(=O)(=O)NC3CCCCCCC3)cc12 | 17.9 |
| C/C(Cl)=C\C[N+](C)(C)CC(=O)OCCc1ccccc1.[Br-] | 5.89 |
| CCOC(=O)C1CCCN(C(=O)c2cc3c(=O)n(C)c4ccccc4c3n2C)C1 (stereo not drawn) | 6.9 |
| OC(CC#CCN1CCCCC1)(c1ccccc1)c1ccccc1 | 11 |
| O=C(Nc1ncnc2sc3c(c12)CCCCC3)c1ccccc1 | -1.57 |
| COCCCNCC(=O)Nc1ccc(OC(F)(F)F)cc1.Cl | -1.34 |
| Cc1cccc(NC(=O)NCc2ccc3c(c2)cc(C)n3C)c1 | 8.52 |
| CCN(CC)S(=O)(=O)c1ccc(C)c(NC(=O)Cn2cnc3cc([N+](=O)[O-])ccc3c2=O)c1 | -6.83 |
| COc1cccc(OC)c1C(=O)Nc1cccnc1 | -2.82 |
| Cc1ccc(S(=O)(=O)N2CCCCC2)cc1NC(=O)CSc1nccn1C | -1.66 |

| Structure (SMILES) | hERG current change (%, negative = inhibition) at 1uM [%] |
| --- | --- |
| C#CCOc1ccc(Br)cc1/C=N/O | 4.51 |
| COc1cc(-c2nnc(Sc3ccc(C(F)(F)F)cc3[N+](=O)[O-])o2)cc(OC)c1OC | 7.1 |
| O=C(COc1cccnc1[N+](=O)[O-])Nc1ccc2c(c1)OC(F)(F)O2 | -1.61 |
| Cc1csc(NC(=O)c2ccco2)c1C(=O)c1ccccc1 | 9.2 |
| COCCN1C(=O)N[C@@H](c2cccc(C(F)(F)F)c2)C(C(=O)OC)=C1C | 16.1 |
| Cc1c(C#N)c(=O)oc2ccc3ccccc3c12 | 10.6 |
| O=c1c2cc(Br)ccc2[nH]c(=S)n1Cc1ccccc1 | 15.4 |
| CCOC(=O)C1CCN(C(=O)CNC(=O)OC(C)(C)C)CC1 | 9.38 |
| COc1ccc(S(=O)(=O)N2CCc3ccccc32)cc1C(=O)N1CCN(C=O)CC1 | 13.2 |
| C/C(CC(=O)NCc1ccco1)=N\NC(=O)Cc1cccc2ccccc12 | 5.84 |
| CC(C)(C)c1cc2cccnc2n1Cc1ccccc1 | 8.69 |
| COc1ccc(OC)c(N(CC(=O)N2CCCCC2)S(=O)(=O)c2ccc(OC)c(OC)c2)c1 | 16.5 |
| Cc1cccc(C)c1NC(=O)C[n+]1cc(-c2ccccc2)n2c1CCC2.[Cl-] | 8.62 |
| Cc1ccc(CNC(=O)C(=O)NCC2OCCN2S(=O)(=O)c2ccc(Br)cc2)cc1 (stereo not drawn) | 8 |
| CCC(=O)c1cc(-c2nc3ccccc3n2C)n(C)c1 | 13.5 |
| O=C(NNC(=O)c1ccc(S(=O)(=O)N2CCOCC2)cc1)c1ccccc1 | 10.9 |
| Cc1ccc(O)c(C(=O)c2cnc3c(c2)c(=O)n(C)c(=O)n3C)c1 | 15.9 |
| CNC(=O)c1cccc(N2CCCC2=O)c1 | 13.5 |
| CCCCn1c(=O)c(CCC(=O)OC(C)C(=O)Nc2cccc(Cl)c2Cl)nc2ccccc21 (stereo not drawn) | 9.5 |
| COc1cccc(NC(=O)Cn2c(=O)c3c(ncn3Cc3ccccc3)n(Cc3ccccc3)c2=O)c1 | 3.04 |
| Cc1ccc(N2CC(C(=O)NC3=NCCS3)CC2=O)cc1C (stereo not drawn) | -2.4 |
| C#CC1(NC(=O)NC(=O)c2c(F)cccc2F)CCCCC1 | 13.7 |
| O=C(N/N=C/c1cn(-c2cccs2)nc1-c1ccccc1)c1ccccc1Br | 13.4 |

| Structure (SMILES) | hERG current change (%, negative = inhibition) at 1uM [%] |
| --- | --- |
| Cc1ccc(-c2nnc(OCc3nc4ccccc4n3C)c3ccccc23)cc1 | 4.92 |
| CCCc1cc(N2CCCC(C(=O)NCC)C2)n2ncnc2n1 (stereo not drawn) | -2.06 |
| Cc1cc(NC(=O)c2ccc(S(=O)(=O)N(C)C)cc2)no1 | 12.3 |
| CC(Oc1ccc2c3c(c(=O)oc2c1)CCC3)C(=O)NCc1ccccn1 (stereo not drawn) | 15.9 |
| CCCOc1cccc(-c2nnc(N)s2)c1 | 6.45 |
| O=C(Nc1ccncc1)c1cccc(S(=O)(=O)N2CCOCC2)c1 | -19.6 |
| Cc1cc(NC(=O)c2sccc2C)n(-c2nc3ccccc3[nH]2)n1 | 12.6 |
| COC(=O)c1ccc(C2c3[nH]c4ccccc4c3C[C@H]3C(=O)N(C4CCN(Cc5ccccc5)CC4)CC(=O)N23)cc1 (stereo partly drawn) | 7.9 |
| OCCOc1ccc(CN2CCCC(N3CCN(c4ccc(F)cc4)CC3)C2)cc1 (stereo not drawn) | -39.5 |
| OC(COc1ccc(Cl)cc1Cl)Cn1ccnc1 (stereo not drawn) | 11.4 |
| CC(=O)c1ccc(OC(=O)C(CCS(C)(=O)=O)N2C(=O)c3ccccc3C2=O)cc1 (stereo not drawn) | 10.9 |
| O=C(C1Cc2ccccc2CN1S(=O)(=O)c1ccc(F)cc1)N1CCCCCC1 (stereo not drawn) | 8.92 |
| O=C(CSc1nc2ccc(S(=O)(=O)N3CCOCC3)cc2[nH]1)N1CCOCC1 | 11.7 |
| CCCN(c1ccc(C)cc1)c1nc(=O)c2cccnc2s1 | 3.01 |
| CC(=O)c1c(C)n(CCCOC(C)C)c2ccc(O)cc12 | 5.89 |
| COc1c(C)oc2cc(O)ccc2c1=O | 8.93 |
| CN(C)CCN(C(=O)CCc1ccccc1)c1nc2c(F)cc(F)cc2s1.Cl | 10.7 |
| CCOc1ccccc1NC(=O)CN(c1ccc(C)cc1)S(=O)(=O)c1c(C)n[nH]c1C | 18.7 |
| Cc1ccccc1S(=O)(=O)c1cc2ccccc2nc1N | 11.6 |
| CCOC(=O)c1c(C)[nH]c(=S)c(C#N)c1-c1ccc(OC)cc1 | 13.3 |
| Cc1ccc(NC(=O)CCCc2ccccc2)c([N+](=O)[O-])c1 | 17.7 |
| CCOC(=O)CNC(=O)C(=O)c1c(O)[nH]c2ccccc12 | 11.8 |
| CCc1ccc(OCC(=O)Nc2cccc3c2CCCC3)cc1 | 16.1 |

| Structure (SMILES) | hERG current change (%, negative = inhibition) at 1uM [%] |
| --- | --- |
| Cc1cc(S(=O)(=O)N2CCOCC2)ccc1OCC(=O)Nc1ccc(Br)cc1F | 17.7 |
| CCCCn1c(SCC(N)=O)nc2c(sc3ccccc32)c1=O | 5.58 |
| CC(=O)NC(CC(=O)NC(C)c1ccc(Cl)cc1Cl)c1ccccc1 (stereo not drawn) | -2 |
| O=c1c2ccccc2ncn1-c1cccc(Cl)c1 | 9.06 |
| CC1(C(=O)N(CC(=O)NC2CCCC2)C2CCCC2)CC(=O)N=C2C=CC=CN21 (stereo not drawn) | 20.7 |
| Cc1cc(N2CCOCC2)ncc1[N+](=O)[O-] | -1.46 |
| Cc1cc(Nc2ccccc2)c2c([N+](=O)[O-])c(C)cc(C)c2n1 | 3.36 |
| COc1ccc(NC(=O)Cc2ccccc2F)cc1S(=O)(=O)N1CCCCC1 | 15.5 |
| CC(=O)NS(=O)(=O)c1ccc(NC(=O)CC(C)c2ccccc2)cc1 (stereo not drawn) | 2.97 |
| Nc1ccccc1SCc1cn2cccnc2n1 | 4.81 |
| CCN(CC)CCNc1nc(-c2ccccc2)c2c(c1C#N)CC(C)(C)OC2 | -49.7 |
| O=C(CCSc1ccc(Cl)cc1)NC12CC3CC(CC(C3)C1)C2 | 21.1 |
| COc1ccc(N2CCN(CC(O)COc3c(OC)cccc3OC)CC2)cc1.Cl (stereo not drawn) | -7.71 |
| CCOc1cc(CNCC2CCCO2)cc(Br)c1OCC(N)=O.Cl (stereo not drawn) | 5.37 |
| Cc1cccc(NC(=O)[C@@H](NC(=O)[C@@H]2Cc3ccccc3CN2)C(C)C)c1 | -29.7 |
| CC(=O)Nc1ccc(S(=O)(=O)N2CCCC(C(=O)N3CCN(c4ccccc4)CC3)C2)cc1 (stereo not drawn) | -1.2 |
| COc1ccc(CNC(=O)CCC(=O)N2CC(C)Oc3ccccc32)cc1 (stereo not drawn) | -0.874 |
| Cc1cc(=O)n2[nH]c(=O)c(N=Nc3ccccc3)c2[nH]1 | 5.12 |
| COc1cc(OC)c(OC)cc1/C=N/Nc1ncnc2c1[nH]c1ccccc12 | -4.45 |
| CCOC(=O)c1[nH]c2ccc(OC)cc2c1NC(=S)N1CCN(c2ccc(F)cc2)CC1 | 8.21 |
| COc1cc2c(cc1NC(=O)c1ccco1)CCCC2 | 6.74 |
